Data on eight molecules can be found in publication PMC8244865, “Recruitment of phospholipase Cγ1 to the non-structural membrane protein pK15 of Kaposi Sarcoma-associated herpesvirus promotes its Src-dependent phosphorylation” (PLoS Pathogens, 2021).

Where a chain is given by its changes, count along the chain named. Names may count otherwise. Where two headings read alike, the source gives them in different places. Results are given in words; binding and its absence hold for the method and conditions named. For some assays here: In cells and extracts the contact can be indirect. Some entries that bind do so weakly or less than the wild type. For some assays here: Sequences can lack the tags named with a protein.

In assay [1] the target is T1, GST-fused pK15 cytoplasmic tail (pK15 CT WT), phosphorylated in vitro by Src (Kaposi Sarcoma-associated herpesvirus (KSHV, HHV-8)) (UniProt Q9QR69).
T1 sequence (chain, phosphotyrosine at Y481 (dominant band) and Y431 (minor band), in vitro by Src): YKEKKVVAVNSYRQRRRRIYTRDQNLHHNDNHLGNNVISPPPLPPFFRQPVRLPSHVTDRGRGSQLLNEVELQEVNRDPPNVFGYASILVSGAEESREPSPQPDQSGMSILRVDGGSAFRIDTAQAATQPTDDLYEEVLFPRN
Briefly: pull-down; GST-pK15 CT proteins on glutathione beads, phosphorylated in vitro by Src or left unphosphorylated, incubated overnight at 4°C with HEK-293T lysate (transfected or untransfected) in IP buffer (50 mM Tris pH7.6, 60 mM NaCl) with phosphatase inhibitors; Western blot; only the target purified. Background: A western blot detects proteins with antibodies after separation by electrophoresis.

The target in assay [2] is T2, 5,6-FAM-labelled phosphorylated pK15 12mer peptide (Kaposi Sarcoma-associated herpesvirus (KSHV, HHV-8)).
T2 sequence (peptide, phosphotyrosine at Y481 (4th residue); 5,6-FAM at the N-terminus): DDLYEEVLFPRN
The assay is described as follows: microfluidic diffusional sizing (Fluidity One-W); 200 nM 5,6-FAM peptide held constant, PLCγ1 domains varied from 0 nM to 8000 nM, room temperature, 100 mM MES, 150 mM NaCl, 3 mM TCEP, pH 6.5; hydrodynamic radius fitted; triplicate; both purified.

In assay [3] the target is T1, GST-fused pK15 cytoplasmic tail (pK15 CT WT), phosphorylated in vitro by Src (Kaposi Sarcoma-associated herpesvirus (KSHV, HHV-8)). Briefly: pull-down; GST-pK15 CT proteins on glutathione beads, phosphorylated in vitro by Src or left unphosphorylated, incubated overnight at 4°C with HEK-293T lysate (transfected or untransfected) in IP buffer (50 mM Tris pH7.6, 60 mM NaCl) with phosphatase inhibitors; Western blot; only the target purified. This is another data set of the same source.

The target in assay [4] is T3, PLCγ1 cSH2 domain (aa 668-790) (UniProt P19174).
T3 sequence: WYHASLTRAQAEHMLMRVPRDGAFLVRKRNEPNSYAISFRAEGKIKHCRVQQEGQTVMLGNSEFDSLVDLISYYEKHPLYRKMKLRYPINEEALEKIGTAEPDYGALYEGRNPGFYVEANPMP
The assay is described as follows: NMR titration; 1H-15N HSQC of 15N-labelled nSH2 or cSH2 (100 μM) with increasing pK15 12mer peptide up to 2 molar equivalents, 600 MHz, 298 K, 100 mM MES, 150 mM NaCl, 3 mM TCEP, pH 6.5; both purified.

For “S-tagged full length PLCγ1 R586L+R694L double mutant (from UniProt P19174 1-1290)”, the binding entry in assay [1] is reported as “binds”.

In the case of “S-tagged full length PLCγ1 R694L (from UniProt P19174 1-1290)”, the binding result in assay [1] is recorded as “binds”.

For “S-tagged full length PLCγ1 R586L (from UniProt P19174 1-1290)”, in assay [1], the binding entry is “binds”.

B1: PLCγ1 cSH2 R694L (aa 668-790) (domain or fragment, UniProt P19174 668-790)
chain: T3 sequence with R27L
In the case of B1, the binding entry in assay [2] was “no binding (tested: up to 8000 nM PLCγ1 domain)”.

B2: S-tagged full length PLCγ1, transfected (protein, UniProt P19174 1-1290)
chain: MAGAASPCANGCGPGAPSDAEVLHLCRSLEVGTVMTLFYSKKSQRPERKTFQVKLETRQITWSRGADKIEGAIDIREIKEIRPGKTSRDFDRYQEDPAFRPDQSHCFVILYGMEFRLKTLSLQATSEDEVNMWIKGLTWLMEDTLQAPTPLQIERWLRKQFYSVDRNREDRISAKDLKNMLSQVNYRVPNMRFLRERLTDLEQRSGDITYGQFAQLYRSLMYSAQKTMDLPFLEASTLRAGERPELCRVSLPEFQQFLLDYQGELWAVDRLQVQEFMLSFLRDPLREIEEPYFFLDEFVTFLFSKENSVWNSQLDAVCPDTMNNPLSHYWISSSHNTYLTGDQFSSESSLEAYARCLRMGCRCIELDCWDGPDGMPVIYHGHTLTTKIKFSDVLHTIKEHAFVASEYPVILSIEDHCSIAQQRNMAQYFKKVLGDTLLTKPVEISADGLPSPNQLKRKILIKHKKLAEGSAYEEVPTSMMYSENDISNSIKNGILYLEDPVNHEWYPHYFVLTSSKIYYSEETSSDQGNEDEEEPKEVSSSTELHSNEKWFHGKLGAGRDGRHIAERLLTEYCIETGAPDGSFLVRESETFVGDYTLSFWRNGKVQHCRIHSRQDAGTPKFFLTDNLVFDSLYDLITHYQQVPLRCNEFEMRLSEPVPQTNAHESKEWYHASLTRAQAEHMLMRVPRDGAFLVRKRNEPNSYAISFRAEGKIKHCRVQQEGQTVMLGNSEFDSLVDLISYYEKHPLYRKMKLRYPINEEALEKIGTAEPDYGALYEGRNPGFYVEANPMPTFKCAVKALFDYKAQREDELTFIKSAIIQNVEKQEGGWWRGDYGGKKQLWFPSNYVEEMVNPVALEPEREHLDENSPLGDLLRGVLDVPACQIAIRPEGKNNRLFVFSISMASVAHWSLDVAADSQEELQDWVKKIREVAQTADARLTEGKIMERRKKIALELSELVVYCRPVPFDEEKIGTERACYRDMSSFPETKAEKYVNKAKGKKFLQYNRLQLSRIYPKGQRLDSSNYDPLPMWICGSQLVALNFQTPDKPMQMNQALFMTGRHCGYVLQPSTMRDEAFDPFDKSSLRGLEPCAISIEVLGARHLPKNGRGIVCPFVEIEVAGAEYDSTKQKTEFVVDNGLNPVWPAKPFHFQISNPEFAFLRFVVYEEDMFSDQNFLAQATFPVKGLKTGYRAVPLKNNYSEDLELASLLIKIDIFPAKENGDLSPFSGTSLRERGSDASGQLFHGRAREGSFESRYQQPFEDFRISQEHLADHFDSRERRAPRRTRVNGDNRL
As to B2, the binding entry in assay [3] is “binds”.

B3: endogenous PLCγ1 of HEK-293T cells (protein, UniProt P19174 1-1290)
chain: B2 chain
Consider B3, for which, in assay [3], the binding result is “binds”.

B4: phosphorylated 12mer pK15 peptide (peptide)
peptide: DDLYEEVLFPRN
modifications: phosphotyrosine at Y481 (4th residue)
With B4, the binding entry in assay [4] is “binds”.

B5: PLCγ1 nSH2 R586L (aa 545-662) (domain or fragment, UniProt P19174 545-662)
chain: HSNEKWFHGKLGAGRDGRHIAERLLTEYCIETGAPDGSFLVLESETFVGDYTLSFWRNGKVQHCRIHSRQDAGTPKFFLTDNLVFDSLYDLITHYQQVPLRCNEFEMRLSEPVPQTNA
Take B5: in assay [2], the binding result is recorded as “no binding (tested: up to 8000 nM PLCγ1 domain)”.
